Measured values from PubChem BioAssay AID445 (National Center for Advancing Translational Sciences (NCATS), 2006).
The whole screen tested about 110,000 compounds, of which about 40 (0.04%) were called active. The inconclusive results got no clear call from the source; some entries with a clear call stand among them for comparison. Calls come from the whole dose curve; as a rule, active = well fitted curve in the direction sought with a large enough effect in the signal ratio (not every such curve was filed as active); inconclusive = small, poorly fitted or top-dose-only effect, or a change in a side signal; inactive = flat fitted curve, though single readings scatter; the % refers to the signal ratio. A potency beside an inconclusive call is a rough fit, not a confirmed value.

test: IkB Signaling; conditions: ABC-DLBCL IkBa-CBG/CBR dual luciferase ratio (green luciferase fused to IkBa over red control in OCI-Ly3 lymphoma cells), 4 h; IkBa stabilization activation: at 57.1 µM (top of the series), scaled: untreated 0%, proteasome inhibitor 100% unless noted;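 for IkBa stabilization activation: 0% = basal untreated cells and 100% = reference inhibitor full response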
Summary of the method: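 Luminescence ratio of IκBα-fused green versus native red beetle luciferase in OCI-Ly3 cells, 4 h post-doxycycline with compound; red signal alone, scaled from basal (0%) to zero light (-100%), flagged nonspecific or cytotoxic effects.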
Potency is the fitted concentration of half-maximal effect.

Structure (SMILES) | IkBa stabilization activation | Potency
O=C(c1cc(-c2ccc(Cl)cc2)on1)N(Cc1ccc(F)cc1)Cc1ccco1 | inconclusive: 0.628% [signal inhibitor] | –
CCn1c(COc2cccc(OC)c2)nnc1SCC(=O)Nc1cccc(OC)c1 | inconclusive: 10.5% [signal inhibitor] | –
COc1ccccc1-c1noc(CCC(=O)Nc2cccc(C)c2)n1 | inconclusive: 9.59% [signal inhibitor] | –
CCc1cccc(NC(=O)c2sc3nc[nH]c(=O)c3c2C)c1 | inconclusive: -3.78% [signal inhibitor] | –
Cc1ccc(C)c(N2CCN(C(=O)c3cc4ccccc4oc3=O)CC2)c1 | inactive | –
O=C1CN(C(=O)c2ccc(S(=O)(=O)N3CCCC3)cc2)C(c2ccc(F)cc2)c2cc(F)ccc2N1 (stereo not given) | inconclusive: 3.08% [signal inhibitor] | –
CCN(c1ccccc1)S(=O)(=O)c1nnc(NC(=O)C(C)Oc2ccccc2)s1 (stereo not given) | inconclusive: 2.69% [signal inhibitor] | –
COc1ccc(C2c3c(-c4cc(Cl)c(C)cc4O)n[nH]c3C(=O)N2Cc2cccnc2)cc1OC (stereo not given) | inconclusive: -2.79% [signal inhibitor] | –
CCN(CC)CCCNc1cc2n(c(=O)n1)CCc1cc(OC)c(OC)cc1-2 | inactive | –
O=C1C(C=NCc2cccnc2)=C(O)c2ccccc21 | inactive | –
O=c1[nH]c(C(F)(F)F)nc2c1nnn2Cc1ccccc1F | inactive | –
COc1cc(C(=O)Nc2ccc(-n3cnnn3)c(C)c2)cc(OC)c1OC | inconclusive: 1.75% [signal inhibitor] | –
CCOC(=O)N1CCN(C(=O)c2ccc3c(=O)n(Cc4ccc(OC)cc4)c(=S)[nH]c3c2)CC1 | inconclusive: 11.2% [signal inhibitor] | –
COc1cc(C(=O)Nc2nccs2)c(Br)c(OC)c1OC | inconclusive: -1.67% [signal inhibitor] | –
COc1ncc2nc(-c3ccc(Cl)cc3)c(=O)n(Cc3cccs3)c2n1 | inactive: -1.77% [at 11.4 µM, scaled: untreated 0%, proteasome inhibitor 100%] | –
CCOC(=O)c1c(NC(=O)COc2cccc(C)c2C)sc2c1CCCCC2 | inconclusive: 7.94% [signal inhibitor] | –
COc1ccccc1Nc1nnc(SCC(=O)N2CCCC2)s1 | inactive | –
CC(C)(CCc1nc2ccccc2[nH]1)C(=O)O | inactive: -1.31% [at 11.4 µM, scaled: untreated 0%, proteasome inhibitor 100%] | –
Cc1nnc(C)n1/N=C/c1ccc2c(c1)OCCO2 | inactive | –
Cc1ccc(Cn2ccn(Cc3cccc(C(F)(F)F)c3)c(=O)c2=O)cc1 | – | inconclusive: 12.6 µM [signal inhibitor]
